Data reported in PubChem BioAssay (NCI).
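96-well plates; 48 h exposure; 5 concentrations. Endpoints by linear interpolation between flanking doses. Not reached: highest tested concentration assigned. GI50: concentration for 50% inhibition of growth. The concentration for full growth arrest is given as TGI.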

Test system: NCI-H322M lung
Test: NCI tumour cell line growth inhibition, 48 h

| Structure (SMILES) | GI50 [µM] | TGI [µM] |
| --- | --- | --- |
| CCCn1cnc2c(c1=N)C(c1ccc(F)cc1)c1sc3c(CC)cccc3c1O2 (stereo not given) | 0.779 | > 100 |
| C#CC(=O)N(c1ccc(OC)cc1OC)C(C(=O)NCC(=O)OCC)c1cccs1 (stereo not given) | 14.5 | 28.6 |
| CNC(=O)c1cc(Oc2ccc3nc(NC(=O)c4ccc(CN5CCCN(C)CC5)c(C(F)(F)F)c4)sc3c2)ccn1 | 1.65 | 3.09 |
| CCN(CC)c1ccc(/C=N/NC(=O)c2ccc(S(N)(=O)=O)cc2)c(O)c1 | 0.242 | 35.6 |
| CCN1C(=O)N(CC)C2SC(N/N=C/C=C/c3ccccc3OC)=NC21 (stereo not given) | 1.15 | > 100 |
